# Data from the supplement of paper PMC8728848.
# This is one part of the list.
# B1: LFA (Limax flavus) (protein)
# chain: MSVLFLAASFLLLASFELVAAQGCPRQDPGDWIVIQRRLNADVNFYRGWADYKHGFGDLRCNFWLGNEKIHQLTSHGRYKLRVEFTFNNKSYFAEYSTFKILGEADKYKLQVGGYSGNAGDALTFHNGMAFSTNDRDNDADSIDCAKVYHGAWWYKTCHESNLNGKWGSKKYGEGLNWKAKTTFTATATSSLLKIKALK
# Columns and labels:
# Test in all cases: glycan array binding signal (z-score within array); higher = stronger binding
# Details in all cases: glycan notation: IUPAC condensed, linker removed
# [1] = target: Neu5Ac(a2-3)Gal(b1-4)GlcNAc(b1-3)[Neu5Ac(a2-3)Gal(b1-4)GlcNAc(b1-6)]GalNAc
# Summary of the method: (§1)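 Glycan array data were curated from 3228 arrays in the Consortium for Functional Glycomics database and kept only where the protein sequence was available. Glycan names were converted to IUPAC-condensed notation, and columns mapping to the same glycan were averaged. The binding signal is a within-array Z-score, averaged across arrays of the same protein sequence at different concentrations or buffers and across linkers. Negative Z-scores can be read as non-binding.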
# [2] = target: Neu5Ac(a2-3)Gal(b1-4)GlcNAc(b1-6)GalNAc
# Summary of the method: as §1
# [3] = target: Neu5Ac(a2-3)Gal(b1-4)GlcNAc(b1-6)[Gal(b1-3)]GalNAc
# Summary of the method: as §1
# [4] = target: Neu5Ac(a2-3)Gal(b1-4)GlcNAc(b1-6)[Neu5Ac(a2-3)Gal(b1-3)]GalNAc
# Summary of the method: as §1
# [5] = target: Neu5Ac(a2-3)Gal(b1-4)GlcNAc6S
# Summary of the method: as §1
# [6] = target: Neu5Ac(a2-3)Gal(b1-4)[Fuc(a1-3)]GlcNAc
# Summary of the method: as §1
# [7] = target: Neu5Ac(a2-3)Gal(b1-4)[Fuc(a1-3)]GlcNAc(b1-2)Man
# Summary of the method: as §1
# [8] = target: Neu5Ac(a2-3)Gal(b1-4)[Fuc(a1-3)]GlcNAc(b1-3)Gal
# Summary of the method: as §1
# [9] = target: Neu5Ac(a2-3)Gal(b1-4)[Fuc(a1-3)]GlcNAc(b1-3)Gal(b1-4)GlcNAc
# Summary of the method: as §1
# [10] = target: Neu5Ac(a2-3)Gal(b1-4)[Fuc(a1-3)]GlcNAc(b1-3)Gal(b1-4)[Fuc(a1-3)]GlcNAc(b1-3)Gal(b1-4)[Fuc(a1-3)]GlcNAc
# Summary of the method: as §1
# [11] = target: Neu5Ac(a2-3)Gal(b1-4)[Fuc(a1-3)]GlcNAc(b1-3)GalNAc
# Summary of the method: as §1
# [12] = target: Neu5Ac(a2-3)Gal(b1-4)[Fuc(a1-3)]GlcNAc(b1-6)[Gal(b1-3)]GalNAc
# Summary of the method: as §1
# [13] = target: Neu5Ac(a2-3)Gal(b1-4)[Fuc(a1-3)]GlcNAc(b1-6)[Neu5Ac(a2-3)Gal(b1-3)]GalNAc
# Summary of the method: as §1
# [14] = target: Neu5Ac(a2-3)Gal(b1-4)[Fuc(a1-3)]GlcNAc6S
# Summary of the method: as §1
# [15] = target: Neu5Ac(a2-3)Gal6S(b1-4)GlcNAc
# Summary of the method: as §1
# [16] = target: Neu5Ac(a2-3)Gal6S(b1-4)[Fuc(a1-3)]GlcNAc
# Summary of the method: as §1
# Neu5Ac(a2-3)GalNAc = target: Neu5Ac(a2-3)GalNAc
# Summary of the method: as §1
# [17] = target: Neu5Ac(a2-3)GalNAc(b1-4)GlcNAc
# Summary of the method: as §1
# [18] = target: Neu5Ac(a2-3)[GalNAc(b1-4)]Gal(b1-4)Glc
# Summary of the method: as §1
# [19] = target: Neu5Ac(a2-3)[GalNAc(b1-4)]Gal(b1-4)GlcNAc
# Summary of the method: as §1
# [20] = target: Neu5Ac(a2-3)[GalNAc(b1-4)]Gal(b1-4)GlcNAc(b1-3)GalNAc
# Summary of the method: as §1
# [21] = target: Neu5Ac(a2-3)[Neu5Ac(a2-6)]GalNAc
# Summary of the method: as §1
binder,measurement,setting,value
B1,glycan array binding signal (z-score),[1],-0.317
same,glycan array binding signal (z-score),[2],-0.274
same,glycan array binding signal (z-score),[3],-0.238
same,glycan array binding signal (z-score),[4],-0.305
same,glycan array binding signal (z-score),[5],-0.046
same,glycan array binding signal (z-score),[6],-0.015
same,glycan array binding signal (z-score),[7],-0.283
same,glycan array binding signal (z-score),[8],0.297
same,glycan array binding signal (z-score),[9],-0.178
same,glycan array binding signal (z-score),[10],0.189
same,glycan array binding signal (z-score),[11],-0.146
same,glycan array binding signal (z-score),[12],0.028
same,glycan array binding signal (z-score),[13],-0.142
same,glycan array binding signal (z-score),[14],-0.227
same,glycan array binding signal (z-score),[15],-0.019
same,glycan array binding signal (z-score),[16],-0.35
same,glycan array binding signal (z-score),Neu5Ac(a2-3)GalNAc,-0.295
same,glycan array binding signal (z-score),[17],-0.338
same,glycan array binding signal (z-score),[18],0.025
same,glycan array binding signal (z-score),[19],0.019
same,glycan array binding signal (z-score),[20],1.88
same,glycan array binding signal (z-score),[21],1.01
